Experimental data: the supplement of paper PMC7125110
± gives the standard error. This sample is rich in variants without activity.

B1: glmS ribozyme (parent)
chain: AUAAAAGCGCCAGAACUACAGAAAUGUAGUUGACGAGGAGGAGGUUUAUCGAAUUUUCGGCGGAUGCCUCCAAA

Experiments:
Details in all cases: with glucosamine-6-phosphate
[1] = variants of: B1; assay: self-cleavage kobs at 640 uM GlcN6P; higher = faster cleavage; RNA array
Outline: (§1)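 On sequenced MiSeq chips, barcoded ribozyme variants were made in situ by E. coli RNA polymerase and followed at 37 °C through a hybridised Cy3 probe. Glucosamine-6-phosphate was flowed in at 40 μM to 10 mM in HEPES/KCl/Mg(OAc)2 buffer. Exponential fits to normalised per-tile medians gave kobs, and weighted Michaelis–Menten fits gave kcat and KM.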

[2] = variants of: B1; assay: self-cleavage kobs at 10000 uM GlcN6P; higher = faster cleavage; RNA array
Outline: as §1

[3] = variants of: B1; assay: self-cleavage kobs at 160 uM GlcN6P; higher = faster cleavage; RNA array
Outline: as §1

[4] = variants of: B1; assay: self-cleavage kobs at 2500 uM GlcN6P; higher = faster cleavage; RNA array
Outline: as §1

| Variant | self-cleavage kobs at 640 uM GlcN6P [1] [s⁻¹] | self-cleavage kobs at 10000 uM GlcN6P [2] [s⁻¹] | self-cleavage kobs at 160 uM GlcN6P [3] [s⁻¹] | self-cleavage kobs at 2500 uM GlcN6P [4] [s⁻¹] |
| --- | --- | --- | --- | --- |
| G43A C50G C67A | < 1e-05 |  |  |  |
| U46C G63U C70U | < 1e-05 | < 1e-05 |  |  |
| G43A G51C | < 1e-05 | < 1e-05 | < 1e-05 | < 1e-05 |
| U45G U47G | 0.00314 ± 0.00086 |  | 0.000328 ± 9.1e-05 | 0.00347 ± 0.00055 |
| U46C C71A | 0.000252 ± 4.5e-05 | 0.000453 ± 0.00011 | 8.19e-05 ± 2.2e-05 | 0.00045 ± 9.1e-05 |
| G43C U45C U55A | < 1e-05 |  |  | < 1e-05 |
| U46C A64C C68U | < 1e-05 |  |  | < 1e-05 |
| U49G U55A | 0.000213 ± 2.8e-05 | 0.000891 ± 0.00013 | 6.19e-05 ± 9.7e-06 | 0.000539 ± 5.5e-05 |
| G44A U57A C70A | < 1e-05 |  |  | < 1e-05 |
| C50U G51C A64U | < 1e-05 |  |  | < 1e-05 |
| G44A G60C | < 1e-05 | < 1e-05 |  | < 1e-05 |
| U45A G63C C68G | < 1e-05 |  | < 1e-05 | < 1e-05 |
| G43C G60A G63U | < 1e-05 |  | < 1e-05 |  |
| A48G U54A G63C | < 1e-05 |  | < 1e-05 | < 1e-05 |
| G43C G44C A53G | < 1e-05 |  | < 1e-05 | < 1e-05 |
| G44A G51A U57G | < 1e-05 |  |  | < 1e-05 |
| U56C G63A | < 1e-05 |  |  |  |
| G44C C58G C61G | < 1e-05 |  |  |  |
| A53U U56A C71U | 0.00121 ± 0.00015 |  |  | 0.00323 ± 0.00064 |
| U56C C67G | < 1e-05 | < 1e-05 | < 1e-05 |  |
| U57A G63U | < 1e-05 |  |  |  |
| U54G U57A C58G C68A | 0.000592 ± 0.00015 |  |  |  |

| Variant | self-cleavage kobs at 640 uM GlcN6P [1] [s⁻¹] | self-cleavage kobs at 10000 uM GlcN6P [2] [s⁻¹] | self-cleavage kobs at 160 uM GlcN6P [3] [s⁻¹] | self-cleavage kobs at 2500 uM GlcN6P [4] [s⁻¹] |
| --- | --- | --- | --- | --- |
| A42G A53C G62A | < 1e-05 |  |  | < 1e-05 |
| U45G C50U A52G U56G | < 1e-05 |  |  |  |
| G43U G63U A64U | < 1e-05 |  |  | < 1e-05 |
| G51A U55G U56G G62C | < 1e-05 |  | < 1e-05 | < 1e-05 |
| G44U U49C G60A G63A C67G | < 1e-05 |  |  | < 1e-05 |
| A48U A64G C67G | < 1e-05 |  | < 1e-05 |  |
| A53U G60U G66C | < 1e-05 |  |  |  |
| A52U C70U | 0.000122 ± 2e-05 | 0.000483 ± 4.7e-05 |  | 0.000228 ± 3.4e-05 |
| A52G A53U | 6.4e-05 ± 1.5e-05 | 0.000219 ± 2.3e-05 |  | 0.000176 ± 3.4e-05 |
| U56A U69G | 5.7e-05 ± 2e-05 |  | 5.23e-05 ± 1e-05 | 0.000127 ± 4.2e-05 |
| U57C G63U A64G | < 1e-05 |  | < 1e-05 |  |
| G43C G63A | < 1e-05 |  |  | < 1e-05 |
| G43A U46C U54A U56A U69C | < 1e-05 |  |  |  |
| G43U G66U C71G | < 1e-05 |  |  | < 1e-05 |
| U55G G60C G63U | < 1e-05 |  |  | < 1e-05 |
| A52C U55C G59U | < 1e-05 |  |  |  |
| U46C C50U G66C | < 1e-05 |  |  | < 1e-05 |
| A52U C61U C67U | < 1e-05 |  | < 1e-05 | < 1e-05 |
| U49C A52C A64U | < 1e-05 |  | < 1e-05 | < 1e-05 |
| U45C C58G C61G | < 1e-05 |  |  |  |
| G44C G66C U69C | < 1e-05 |  |  | < 1e-05 |
| C50A | 1.25e-05 ± 3.1e-06 | 2.49e-05 ± 1.3e-06 |  | 2.31e-05 ± 2.1e-06 |

| Variant | self-cleavage kobs at 640 uM GlcN6P [1] [s⁻¹] | self-cleavage kobs at 10000 uM GlcN6P [2] [s⁻¹] | self-cleavage kobs at 160 uM GlcN6P [3] [s⁻¹] | self-cleavage kobs at 2500 uM GlcN6P [4] [s⁻¹] |
| --- | --- | --- | --- | --- |
| G43U G51U C71U | < 1e-05 |  |  | < 1e-05 |
| G44U C50A G66U C68A C71U | < 1e-05 |  |  |  |
| U49C G51C | < 1e-05 |  | < 1e-05 | < 1e-05 |
| G51C U65G | < 1e-05 |  | < 1e-05 | < 1e-05 |
| C58G C71G | 3.12e-05 ± 1.3e-05 |  |  | 3.56e-05 ± 1.5e-05 |
| U56C U57G C70A | < 1e-05 |  |  |  |
| G44U U46A A53U C70G | < 1e-05 |  |  |  |
| U49A A53U G62A | < 1e-05 |  |  | < 1e-05 |
| A53C U57G | 9.98e-05 ± 1.6e-05 | 0.000339 ± 4.6e-05 |  | 0.000143 ± 1.9e-05 |
| U49A U57C G62A | < 1e-05 |  |  |  |
| G43A G51C A64G | < 1e-05 |  |  |  |
| G44C A48U G62U U69C C70U | < 1e-05 |  |  | < 1e-05 |
| U56A C61U A64G | < 1e-05 |  |  |  |
| U56A C58G | 4.15e-05 ± 9.1e-06 |  |  | 0.000121 ± 1.6e-05 |
| A52U G60U A64G C71U | < 1e-05 | < 1e-05 | < 1e-05 | < 1e-05 |
| G43U U69C C70G | < 1e-05 |  | < 1e-05 |  |
| U46A U47G G63U U65A | < 1e-05 |  |  | < 1e-05 |
| U47C C68G | 3.62e-05 ± 7.3e-06 | 6.6e-05 ± 7.8e-06 |  | 5.33e-05 ± 1.1e-05 |
| U47A U56A C70U | 0.00117 ± 0.00047 |  |  | 0.00157 ± 0.0006 |
| A53C C68U | 3.67e-05 ± 7.7e-06 | 8.67e-05 ± 5.3e-06 |  | 8.77e-05 ± 1e-05 |
| A48C G60C | < 1e-05 | < 1e-05 |  | < 1e-05 |
| U49C U54A G63U | < 1e-05 |  |  | < 1e-05 |

| Variant | self-cleavage kobs at 640 uM GlcN6P [1] [s⁻¹] | self-cleavage kobs at 10000 uM GlcN6P [2] [s⁻¹] | self-cleavage kobs at 160 uM GlcN6P [3] [s⁻¹] | self-cleavage kobs at 2500 uM GlcN6P [4] [s⁻¹] |
| --- | --- | --- | --- | --- |
| U49C U55G | < 1e-05 |  |  | < 1e-05 |
| U45A A64C | 7.26e-05 ± 1.9e-05 | 0.000277 ± 7.6e-05 |  | 0.000193 ± 3.8e-05 |
| U49G G51U | < 1e-05 | < 1e-05 | < 1e-05 | < 1e-05 |
| U47C C50A U69G | 5.61e-05 ± 2.5e-05 |  |  | 9.43e-05 ± 2.6e-05 |
| U47G A52U | 6.99e-05 ± 7.7e-06 | 0.000234 ± 2.6e-05 |  | 0.000169 ± 2e-05 |
| G43U A64C U65C | < 1e-05 |  | < 1e-05 | < 1e-05 |
| G43C A52U U57G G60A | < 1e-05 |  |  | < 1e-05 |
| A42U G44U C70G | < 1e-05 |  | < 1e-05 | < 1e-05 |
| G43C A52G | < 1e-05 | < 1e-05 | < 1e-05 |  |
| A48U C71G | 4.04e-05 ± 7.5e-06 | 3.69e-05 ± 8e-06 |  | 6.5e-05 ± 9.8e-06 |
| U47C C61U U69A | < 1e-05 |  | < 1e-05 |  |
| G43A U49G C50G U57C | < 1e-05 |  |  |  |
| C58G G59U C68G | 4.54e-05 ± 1.7e-05 |  |  |  |
| A52G G66U | 2.89e-05 ± 1.1e-05 | 0.00013 ± 1.5e-05 |  | 6.2e-05 ± 1.6e-05 |
| G43C C58U C70A | < 1e-05 |  | < 1e-05 | < 1e-05 |
| U45A G59U C70A | < 1e-05 |  |  | < 1e-05 |
| U54C C61G | < 1e-05 |  |  | < 1e-05 |
| G43C G44A | < 1e-05 |  | < 1e-05 | < 1e-05 |
| G43U G44U A48U | < 1e-05 |  |  | < 1e-05 |
| G43C A64C | < 1e-05 | < 1e-05 | < 1e-05 | < 1e-05 |
| A48C G51A C70U | < 1e-05 | < 1e-05 |  | < 1e-05 |
| U45C A53C C67U | 5.23e-05 ± 1.6e-05 |  | < 1e-05 | 6.03e-05 ± 1.8e-05 |

| Variant | self-cleavage kobs at 640 uM GlcN6P [1] [s⁻¹] | self-cleavage kobs at 10000 uM GlcN6P [2] [s⁻¹] | self-cleavage kobs at 160 uM GlcN6P [3] [s⁻¹] | self-cleavage kobs at 2500 uM GlcN6P [4] [s⁻¹] |
| --- | --- | --- | --- | --- |
| G43A G62U C71A | < 1e-05 |  | < 1e-05 |  |
| G43C U69A | < 1e-05 | < 1e-05 | < 1e-05 | < 1e-05 |
| C58A G60C C61A | < 1e-05 |  | < 1e-05 |  |
| U45G A53G G62A A64C | < 1e-05 |  |  | < 1e-05 |
| G43C G51C | < 1e-05 | < 1e-05 |  |  |
| U54C G62C U65G U69G | < 1e-05 |  |  |  |
| G51A G63C C67A U69C | < 1e-05 |  |  |  |
| U47G G62U U65A | < 1e-05 |  |  | < 1e-05 |
| U55C C58U C71G | < 1e-05 |  | < 1e-05 |  |
| A42G G43A G44C | < 1e-05 |  |  | < 1e-05 |
| U46G C50A C67G | 0.000631 ± 0.00012 |  |  | 0.000506 ± 0.00017 |
| G51A G62U C67A | < 1e-05 |  |  | < 1e-05 |
| U46A U49A | < 1e-05 |  | < 1e-05 | < 1e-05 |
| G43C C58G G59A A64G C67G | < 1e-05 |  | < 1e-05 | < 1e-05 |
| U46C A48U G51C | < 1e-05 |  |  | < 1e-05 |
| U47C U54G G60A | < 1e-05 |  |  |  |
| A53U G63U A64U G66A | < 1e-05 |  |  | < 1e-05 |
| U55G U69G | 8.9e-05 ± 1.9e-05 | 6.23e-05 ± 1.7e-05 | 8.02e-05 ± 1.9e-05 |  |
| U46G G59A | < 1e-05 |  | < 1e-05 |  |
| G51C U54A U57A | < 1e-05 |  |  | < 1e-05 |
